According to PMC4336329 (PLoS ONE, 2015):
Screen size: about 310,000 compounds; about 2,200 (0.71%) showed an effect of 50% or more. The effect is printed as a negative number. This is one part of the list.

What follows are compounds tested against human ether-à-go-go-related gene (hERG) potassium channel (human, UniProt Q12809) (assay: primary screen, population patch clamp on CHO cells stably expressing hERG).
human ether-à-go-go-related gene (hERG) potassium channel, sequence (Q12809 whole entry, looked up): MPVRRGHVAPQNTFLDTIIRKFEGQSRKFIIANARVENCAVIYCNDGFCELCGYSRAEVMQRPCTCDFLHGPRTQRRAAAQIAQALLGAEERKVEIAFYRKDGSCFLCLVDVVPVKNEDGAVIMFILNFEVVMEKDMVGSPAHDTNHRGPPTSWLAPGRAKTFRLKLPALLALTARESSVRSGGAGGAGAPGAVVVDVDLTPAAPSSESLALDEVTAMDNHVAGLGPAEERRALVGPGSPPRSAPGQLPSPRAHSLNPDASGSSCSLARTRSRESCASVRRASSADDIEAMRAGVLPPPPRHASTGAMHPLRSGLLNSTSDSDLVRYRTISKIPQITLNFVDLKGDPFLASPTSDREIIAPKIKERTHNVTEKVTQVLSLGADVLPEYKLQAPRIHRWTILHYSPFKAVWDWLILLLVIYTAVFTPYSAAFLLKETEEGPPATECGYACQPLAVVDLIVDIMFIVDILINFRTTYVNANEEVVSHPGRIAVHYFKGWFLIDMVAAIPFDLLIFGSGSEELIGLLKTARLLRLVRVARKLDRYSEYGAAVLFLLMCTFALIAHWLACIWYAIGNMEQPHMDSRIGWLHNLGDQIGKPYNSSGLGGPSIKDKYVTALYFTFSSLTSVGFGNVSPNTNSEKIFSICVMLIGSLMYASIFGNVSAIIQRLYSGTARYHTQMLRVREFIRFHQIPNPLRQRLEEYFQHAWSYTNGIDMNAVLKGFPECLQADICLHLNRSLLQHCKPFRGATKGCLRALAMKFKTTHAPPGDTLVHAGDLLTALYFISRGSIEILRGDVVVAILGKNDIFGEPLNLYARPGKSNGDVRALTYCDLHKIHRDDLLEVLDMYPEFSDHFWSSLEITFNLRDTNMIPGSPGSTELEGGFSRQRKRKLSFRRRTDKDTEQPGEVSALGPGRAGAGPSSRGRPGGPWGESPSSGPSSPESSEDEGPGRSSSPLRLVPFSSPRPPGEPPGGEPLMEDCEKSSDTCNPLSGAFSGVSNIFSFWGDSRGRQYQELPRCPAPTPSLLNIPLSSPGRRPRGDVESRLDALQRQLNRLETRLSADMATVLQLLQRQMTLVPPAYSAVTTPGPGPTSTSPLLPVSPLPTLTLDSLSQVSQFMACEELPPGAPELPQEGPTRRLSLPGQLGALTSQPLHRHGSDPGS

| Compound | hERG current change (%, negative = inhibition) at 1uM |
| --- | --- |
| Cc1ccc(OCC(=O)Nc2ccc(S(=O)(=O)N3CCN(C)CC3)cc2)cc1 | 9.45% |
| O=C1c2ccccc2NC(c2cccc(O)c2)N1Cc1ccco1 (centres unmarked) | 9.32% |
| CCCCNCCOCCOc1ccc(F)cc1 | 8.42% |
| CCc1nc(N2CCN(C(=O)c3ccccc3)CC2)c(C#N)c2c1COC(C)(C)C2 | -1.39% |
| CCN(CC)CCSc1nc2ccc(OC)cc2[nH]1.Cl | -15.8% |
| CC(C)CNC(=S)NNC(=O)c1ccccc1OC(F)F | 5.74% |
| COc1ccc(NC(=O)Nc2ccc3[nH]ccc3c2)cc1 | 12.7% |
| c1nc(N2CCN(Cc3ccc4c(c3)OCO4)CC2)c2[nH]cnc2n1 | 4.17% |
| CCC1C(=O)NCCN1Cc1nc(-c2ccc(C)s2)oc1C (centres unmarked) | 18% |
| FC(F)(F)c1cccc(-n2c(Cn3nnc4ccccc43)n[nH]c2=S)c1 | 13.4% |
| O=C(CN1C(=O)C2C3c4ccccc4C(c4ccccc43)C2C1=O)N1CCOCC1 (centres unmarked) | 0.75% |
| CS(=O)(=O)N1CCC(C(=O)Nc2cc(Cl)cc(Cl)c2)CC1 | 8.74% |
| CCOC(=O)c1nc(C)n(-c2cc(Cl)ccc2Cl)n1 | 6.72% |
| O=C(c1ccc(C(F)(F)F)cc1)C1CCCN(C(=O)CCc2cnccn2)C1 (centres unmarked) | 14.1% |
| NC(=O)c1sc2cc(C(F)(F)F)cnc2c1-c1cccs1 | 9.47% |
| O=C(NN=C1CCCC1)c1cc(Br)ccc1O | 9.9% |
| CC(=O)Nc1nc(C)nc(C)c1C(C)=O | 10.9% |
| Cc1ccc([N+](=O)[O-])cc1-c1ccc(/C=C(\C#N)c2[nH]nc(N)c2C#N)o1 | 15% |
| O=C(OCCc1cc2ccccc2c(=O)o1)c1ccc(F)cc1 | 16.2% |
| CCCn1ccnc1SC(C)C(=O)Nc1c(C)n(C)n(-c2ccccc2)c1=O (centres unmarked) | 13.4% |
| COc1ccc(-n2c(SCCC(=O)O)nnc2-c2ccncc2)cc1 | 7.01% |
| O=C(c1cc2ccccc2cc1O)N1CCCC(C(F)(F)F)C1 (centres unmarked) | 7.51% |
| COc1ccc(OCC(=O)N2CCN(c3cccc(Cl)c3)CC2)cc1 | -10.3% |
| CCn1c(SCC(=O)NCc2ccccc2)nnc1-c1c[nH]c2ccccc12 | -7.03% |
| Cc1cccn2c(NCc3ccc4c(c3)OCO4)c(-c3ccc(O)cc3)nc12 | -6.87% |
| CC(=O)Nc1ccc(NC(=O)COC(=O)c2cc(S(=O)(=O)N(C)C)ccc2N2CCCC2)cc1 | 8.5% |
